Experimental findings from the supplement of paper PMC4604168 (melanoma cell lines) are described below.

Test systems include WM115; WM1716; WM1745; WM3526; WM3619; WM451Lu.
Common to all, as to experiment: cell count relative to DMSO control; melanoma cells; higher = more viable cells
What all share (details): library dose: low library concentration; 72 h

The other results are listed elsewhere or left out. Many values rest on one well or one pass, so single values are uncertain.
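Note: cell number obtained by counting DAPI-stained nuclei in high-throughput microscope images with image analysis software, screen run in 1,536-well plates.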

For `NC1(c2ccc(-c3nc4ccn5c(=O)[nH]nc5c4cc3-c3ccccc3)cc2)CCC1` + CCCS(=O)(=O)Nc1ccc(F)c(C(=O)c2c[nH]c3ncc(Cl)cc23)c1F [PLX4720] (first compound 0.4 µM, partner dose 0.08 µM), the cell count stood at 69.6% with WM115; 91.8% in the assay with WM1716; 91.1% in the assay with WM1745; 60.9% in the assay on WM3526; 111% in the assay on WM3619; 97.7% in the assay on WM451Lu.
Take `NC1(c2ccc(-c3nc4ccn5c(=O)[nH]nc5c4cc3-c3ccccc3)cc2)CCC1` + CC(C)C[C@H](NC(=O)[C@H](Cc1ccccc1)NC(=O)c1cnccn1)B(O)O [Bortezomib] (first compound 0.4 µM, partner dose 0.001 µM): the cell count in the assay with WM115 was found to be 77.1%; in the assay with WM1716, 58.7%; in the assay with WM1745, 83.1%; in the assay with WM3526, 72.4%; in the assay on WM3619, 53.9%; with WM451Lu, 90.6%.
As for `NC1(c2ccc(-c3nc4ccn5c(=O)[nH]nc5c4cc3-c3ccccc3)cc2)CCC1` + Cc1cc(N2CCOCC2)cc2[nH]c(-c3c(NC[C@@H](O)c4cccc(Cl)c4)cc[nH]c3=O)nc12 [BMS536924] (first compound 0.4 µM, partner dose 0.2 µM), the cell count with WM115 was found to be 74%; with WM1716, 91.8%; in the assay on WM1745 it was 77.7%; with WM3526 it was 65.1%; with WM3619, 98.6%; in the assay on WM451Lu, 84.3%.
As for `C=C(c1ccc(C(=O)O)cc1)c1cc2c(cc1C)C(C)(C)CCC2(C)C` [Bexarotene] + CCCS(=O)(=O)Nc1ccc(F)c(C(=O)c2c[nH]c3ncc(Cl)cc23)c1F [PLX4720] (first compound 2 µM, partner dose 0.08 µM), the cell count with WM115 is 89%; in the assay on WM1716, 86.9%; in the assay on WM1745 it was 95.3%; with WM3526, 77.2%; in the assay with WM3619, 79.7%; with WM451Lu, 108%.
For `NC1(c2ccc(-c3nc4ccn5c(=O)[nH]nc5c4cc3-c3ccccc3)cc2)CCC1` + C=CCNC1=C2C[C@@H](C)C[C@H](OC)[C@H](O)[C@@H](C)/C=C(\C)[C@H](OC(N)=O)[C@@H](OC)/C=C\C=C(/C)C(=O)NC(=CC1=O)C2=O [Tanespimycin] (first compound 0.4 µM, partner dose 0.002 µM), the cell count in the assay on WM115 turned out to be 90.9%; in the assay on WM1716 it was 97.6%; with WM1745 it was 92.6%; with WM3526, 65.9%; in the assay on WM3619, 92.7%; with WM451Lu, 95.8%.
`CN(c1ncccc1CNc1nc(Nc2ccc3c(c2)CC(=O)N3)ncc1C(F)(F)F)S(C)(=O)=O` + O=c1cc(-c2cccc3c2Sc2ccccc2S3)oc(N2CCOCC2)c1 [KU55933] (first compound 0.08 µM, partner dose 1 µM): the cell count in the assay with WM115 amounted to 80.5%; in the assay on WM1716 it was 102%; with WM1745 it was 78.3%; in the assay on WM3526 it was 91%; in the assay with WM3619, 91.4%; in the assay on WM451Lu it was 69.5%.
Consider `NC1(c2ccc(-c3nc4ccn5c(=O)[nH]nc5c4cc3-c3ccccc3)cc2)CCC1` + CN(NC(=O)CC(=O)NN(C)C(=S)c1ccccc1)C(=S)c1ccccc1 [STA4783] (first compound 0.4 µM, partner dose 0.006 µM), for which the cell count with WM115 amounted to 59.8%; with WM1716, 60.9%; with WM1745, 35.8%; with WM3526, 66.7%; in the assay with WM3619, 68.9%; with WM451Lu it was 78.2%.
Consider `CN(c1ncccc1CNc1nc(Nc2ccc3c(c2)CC(=O)N3)ncc1C(F)(F)F)S(C)(=O)=O` + COc1cc(Nc2ncc(F)c(Nc3ccc4c(n3)NC(=O)C(C)(C)O4)n2)cc(OC)c1OC [Tamatinib] (first compound 0.08 µM, partner dose 0.4 µM), for which the cell count stood at 75.1% in the assay on WM115; 80.4% in the assay with WM1716; 46.3% with WM1745; 102% in the assay on WM3526; 86% with WM3619; 88% in the assay with WM451Lu.
Turning to `C=C(c1ccc(C(=O)O)cc1)c1cc2c(cc1C)C(C)(C)CCC2(C)C` [Bexarotene] + Oc1nc(-c2ccc(C(F)(F)F)cc2)nc2c1CSCC2 [XAV939] (first compound 2 µM, partner dose 2 µM), the cell count is 88.3% in the assay on WM115; 58.7% in the assay on WM1716; 82.9% with WM1745; 93.3% in the assay with WM3526; 99.6% with WM3619; 98.1% with WM451Lu.
Regarding `C=C(c1ccc(C(=O)O)cc1)c1cc2c(cc1C)C(C)(C)CCC2(C)C` [Bexarotene] + NC(=O)Nc1cc(-c2cccc(F)c2)sc1C(=O)N[C@H]1CCCNC1 [AZD7762] (first compound 2 µM, partner dose 0.02 µM), the cell count came to 89.5% in the assay with WM115; 71.8% with WM1716; 102% in the assay with WM1745; 81.9% with WM3526; 77.9% in the assay on WM3619; 76.3% with WM451Lu.
Consider `NC1(c2ccc(-c3nc4ccn5c(=O)[nH]nc5c4cc3-c3ccccc3)cc2)CCC1` + Nc1ncn([C@H]2C[C@H](O)[C@@H](CO)O2)c(=O)n1 [decitabine] (first compound 0.4 µM, partner dose 0.1 µM), for which the cell count with WM115 was determined as 68.8%; in the assay on WM1716, 79.3%; in the assay with WM1745 it was 89.7%; in the assay on WM3526 it was 72.4%; in the assay with WM3619, 101%; in the assay with WM451Lu, 102%.
Regarding `C=C(c1ccc(C(=O)O)cc1)c1cc2c(cc1C)C(C)(C)CCC2(C)C` [Bexarotene] + Cc1nc(Nc2ncc(C(=O)Nc3c(C)cccc3Cl)s2)cc(N2CCN(CCO)CC2)n1 [dasatanib] (first compound 2 µM, partner dose 0.004 µM), the cell count amounted to 86.4% in the assay with WM115; 78.3% in the assay with WM1716; 70.6% in the assay with WM1745; 80.9% with WM3526; 81.5% with WM3619; 81.7% with WM451Lu.
As for `C=C(c1ccc(C(=O)O)cc1)c1cc2c(cc1C)C(C)(C)CCC2(C)C` [Bexarotene] + CO[C@@H]1[C@H](N(C)C(=O)c2ccccc2)C[C@H]2O[C@]1(C)n1c3ccccc3c3c4c(c5c6ccccc6n2c5c31)C(=O)NC4 [Midostaurin] (first compound 2 µM, partner dose 0.08 µM), the cell count came out at 85.1% in the assay with WM115; 60.5% with WM1716; 87.4% in the assay with WM1745; 46.9% in the assay on WM3526; 84.1% in the assay with WM3619; 93% with WM451Lu.
Turning to `NC1(c2ccc(-c3nc4ccn5c(=O)[nH]nc5c4cc3-c3ccccc3)cc2)CCC1` + NC(=O)Nc1cc(-c2cccc(F)c2)sc1C(=O)N[C@H]1CCCNC1 [AZD7762] (first compound 0.4 µM, partner dose 0.02 µM), the cell count in the assay with WM115 was found to be 67.6%; in the assay on WM1716, 92.2%; in the assay with WM1745, 85.7%; in the assay on WM3526, 81.5%; in the assay on WM3619, 87.7%; with WM451Lu, 71.5%.
Consider `C=C(c1ccc(C(=O)O)cc1)c1cc2c(cc1C)C(C)(C)CCC2(C)C` [Bexarotene] + COc1cc2c(Oc3ccc4[nH]c(C)cc4c3F)ncnc2cc1OCCCN1CCCC1 [cediranib] (first compound 2 µM, partner dose 0.4 µM), for which the cell count in the assay on WM115 was found to be 92.4%; with WM1716 it was 88.6%; in the assay with WM1745 it was 90.2%; with WM3526, 110%; in the assay on WM3619, 90.1%; in the assay on WM451Lu it was 74.6%.
Consider `CN(c1ncccc1CNc1nc(Nc2ccc3c(c2)CC(=O)N3)ncc1C(F)(F)F)S(C)(=O)=O` + CN(C)S(=O)(=O)c1ccc2c(c1)/C(=C/c1cc3c([nH]1)CCCC3)C(=O)N2 [SU6656] (first compound 0.08 µM, partner dose 0.4 µM), for which the cell count amounted to 74.9% with WM115; 97.8% in the assay with WM1716; 80.6% with WM1745; 118% with WM3526; 96.2% in the assay with WM3619; 91.7% with WM451Lu.
In the case of `CS(=O)(=O)c1ccc(C(=O)Nc2ccc(Cl)c(-c3ccccn3)c2)c(Cl)c1` [vismodegib] + Clc1ccc(Nc2nnc(Cc3ccncc3)c3ccccc23)cc1 [vatalanib] (first compound 1 µM, partner dose 2 µM), the cell count with WM115 came out at 97.6%; in the assay on WM1716, 83.5%; in the assay on WM1745, 77.3%; in the assay with WM3526, 112%; in the assay with WM3619, 93.9%; in the assay on WM451Lu it was 95.8%.
With `NC1(c2ccc(-c3nc4ccn5c(=O)[nH]nc5c4cc3-c3ccccc3)cc2)CCC1` + COc1ccc(COc2ccc(Cc3cnc(N)nc3N)cc2OC)cc1 [GW2580] (first compound 0.4 µM, partner dose 1 µM), the cell count is 70.3% with WM115; 94.2% in the assay on WM1716; 82.1% in the assay with WM1745; 56% with WM3526; 76.9% in the assay on WM3619; 90.4% in the assay with WM451Lu.
